Measurements published in the RNAGym collection of RNA variant scans (doi:10.1101/gad.245936.114).
Variants at the floor of the assay are shown more often than the library holds them.

B1: tRNA (parent)
chain: CUCUCGGUAGCCAAGUUGGUUUAAGGCGCAAGACUUUAAUUUAUCACUACGAAAUCUUGAGAUCGGGCGUUCGACUCGCCCCCGGGAGAUUUUUUCCUCGAGCAA

Variants of: B1
Test: nonsense suppression (GFP-seq) (ratio to wild type); higher = more function; SUP4oc tRNA, yeast GFP reporter sort-seq
Outline: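 Raffinose/galactose medium with 80 mg/L adenine was used to grow yeast carrying genome-integrated tRNA variants (~3% random-mutation library), RFP, and a galactose-driven GFP ochre reporter. Cells went into GFP/RFP bins, which were Illumina-sequenced, and variants with ≥100 reads and ≥30 cells were scored. Nonsense suppression (GFPSEQ) is the per-bin median GFP/RFP weighted by estimated cell share and expressed relative to the unmutated parent tRNA.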

Nonsense suppression, 0.0425:
A54C G65U

Nonsense suppression, 0.135:
A54C U58A

Nonsense suppression, 0.21:
A54C C81U

Nonsense suppression, 0.15:
C56U
U55C U76A

Nonsense suppression, 1.16:
A54U G61U

Nonsense suppression, 0.03:
U57A C75U

Nonsense suppression, 0.571:
A54U C79U

Nonsense suppression, 0.0408:
U57A G84U

Nonsense suppression, 0.729:
A54C U63C

Nonsense suppression, 0.165:
U57A G85A

Nonsense suppression, 0.211:
A54C C82U

Nonsense suppression, 0.0506:
A54C U63G

Nonsense suppression, 0.0315:
U55C G86A

Nonsense suppression, 0.156:
U55C U63C

Nonsense suppression, 0.0733:
A54C C80G

Nonsense suppression, 0.334:
A54C G61A

Nonsense suppression, 0.0904:
A54C G85C

Nonsense suppression, 0.0331:
U55C G73A

Nonsense suppression, 0.0719:
U55C A87C

Nonsense suppression, 0.0859:
U57A A60C

Nonsense suppression, ≤ 0.026:
U57A G69U C77A
C56A C83G
U55A U57G G61C
A54G C80G
U57A C81G A89G
U55A U76C G78U
U57G G61A G69A C80G
U57A C83U G88C A89C
U57G U70G
U57A A60U A87G
U57A G65A
C56A C81A
C56A C81U
A54U U57G G65C
U58C C68G
U58A C82G
U58A C82A
U55C U57C A60C A74G
U57A G59U U70A
U57G G85A G86C
C56G C64G G67A G86C
U57A U76C G78U
C56U U63C
U58A A60U
C56G G69A
U58C G65C C82U
U55C G61U G84C
U57G C68A U76G
U55G C81A
C56G U58C G66C U70C
A54U A60C U71C C82A
A54U C56G U71G C80G
C56U C64A A74C C75A
C56A G88C
A54U C82G
C56G U57A G65U G69U
C56U C68A U76A A87U G88A
U58A G84C
U58C C82U
U55A G73A
U57G U63A
U55G A60U G86U
A54C U63C U71A
U57G U70A G86U
U55G U58G
U57A G67U G78C
U57A C72G
C56G
C56A
U55G A87G
C56U A62C
A54G C77U
U55A U57A C77A
A54C G61U G65A
U57C G59U
U55A G66A C68G G69A
A54U G59C C82G
U57A C79A
C56A A60U G69A
C56G G59A A62U
U57G U58C G66A G88A
U57C G66U C81A
U58A C81G
U57A G84C
A54G G73U
A54G C56A G61U
U57A U71G
U57A U71A
A54G G61C G86U
C56U C77G
U58A C68G A74C
U57A U63C C64U C83G
U58C G61A G73U
U55G A62U G67A
U55G C64G C75U
U57G U58G
C56G U57A C72G
A54U C56G
U58A C75G
U57G C64G
U57G G66C
U57G G66A
U57C G69A A74G C80A
A54U C83G G84U
U57C U71A C77U C81G
A54U U71C A87C
A54C U57C U63G C64G A74C
A54U G69A
C56G A62G
U55G G67U A74U
U57C A74C
U55A G73C C75U C79A
U58A G66U
A54C G59U
U55C U70G C80U
U58C C81G
C56A U63C
C56U G84U
C56G U58G A60U C77G
U55G C83G G88A
A54U G65C A89G
U55C G61A G73U C81G
U57G C80U G85C
U57C U63C U76A
U57C A62U
C56G C81U
C56A A62G U71C
U55A C72G
U55C C72A A74G C82U
U55G C64G G78U A87G
A54U C64A G78A
U55G G61C C75A
A54C U55A G61C
U57A U70A G86A
A54G A89G
A54G A89C
U55G G67A
U57A U76A
U58A G61U A62U G85U
A54C G67C
C56G U70A
C56G C80A G88C
U57A C68G
U55C G66U
U55C U70G
C56G G88A
U55A G61A G73A
U55G U70C
U58C G85A
U55C C80A
A54C U63G A89C
U55C U70C C75A A87G
U55A A60U U76C
A54G G66U U71A
U58A G88A A89U
U57G A74U
U57A G86U
U58A C79G
U58A C79A
C56U U63A C81G G84C A87G
U57C G66A
U57C G66U
U55G C56A A74U A87G
A54C U71A
A54U G61C A74G
A54G G85A
U55C G78C C80U
U57A G67U U76C
U58A G69U
U57C C68G
C56U C64G G73C C81G
U55A G59U G84U
U57A A89C
U57C C77A A89G
U57C C77A A89U
U55A A74C
U55G C75U
U55G C75G
U55A A74C G88A
U55A G69U U71A
U58A A74U
U58A A74C
U55C A60C
U58C C72U C77A
U57A G65C G88C
U57G A60C
C56U U71C
U55A C64A G86A
U55G A89U
A54G G88U
C56U C75A A87C
A54U U70A
U55A U70C
C56U U70C U76C
U55C C64A
U55A C56A U70A G84A A87C
C56G G69A U71C
U57A C77U
U55C G73C G84A G86A
U55G C79G C83G
U55G G65C
C56G G67A A74U U76A
A54C U55G
C56A A62C
U55A C56A G66A
C56G U57A
U55G G59C A89U
C56G G69C U70A
C56G G66C C83G
U57A G61C G65A
U57C G69A
U55C A60G G61C
U57A U58C C81G
A54U C83A
A54C C81A
U57C U58G C79G
U55A U58G
C56A U57G G65C
U57A U58C
U57C G78C
A54G U55A
C56G A89U
U55G G69A
C56G U57G C68A G78C C82A
U55A U71G
U55C G88A
U55C G86A G88A
U57A A74U
U57A A74C
C56A G61A G85A
C56A A62U U76G G78A
U58A A62U
U57A G69U C83G
U57A G69U C83U
C56G G61U G67A
A54U U76A G78U
A54U A62C
C56U C64U
C56U G86U
U57G G85A
A54U A89C
C56U A62G U63C
U58A U71A C83U
U57C C83A
U58A G78A
U55A U70C C75A C79A
C56A A74C C75U
C56A A74C
C56G G67U A87U
C56A A62C G73C C80G A87G
U58A A74G G88A
U57A G69A C80A
U55G C72A
U55G C72U
U57G C72G C77U G88C
A54C C82G
U57A G69C
U55A G84A
A54C G59A A60C G73U
C56G G78C
U55C G67A C80G
U55C G67A C80U
U55A C83A
U55A G59A
A54G G61C
C56G G59A C81G
C56G U76A G78C
U57A G61A A62G
C56G C79U
C56G C79A
C56A C64U U70A U76C C82U
A54C G86U
U57G C77U
A54G U63C
U55A G88A
C56A G65C
C56U G59U C79U
U57C U63C C64G G65U
U57C U58C
A54G U55G U58C
U57G U71A
U55G U58C A60G C81G G85A
C56G A74U
C56G A74C
U55G C68A
U57C U58C C81A G86C
U57G G88U
U57G G88A
C56G A62U G84C
U57C G88U
U55G C56U
U57C A60G C80G G88A
C56G A62U G78C G84A
U55A U63C
C56G G67U
U55A A60C G61A A62C G86U
U57A G73C
A54G G67U C68A
A54C U58A G69A A74U G88A
A54G G86U
U55G C72U G86A
A54G G69C A74G G86U
U57A C79G G85A
U55A C56U
U57G G67U C82G
C56G G84A
U58C C80G
U57A U63G
U55C A60U U63A G84A A87U
U55A C64G
U55A C64U
U57C U63C C83A
U57A C82A
U57A C82G
U57A C82U
U55A G85C
U57C C82A
U58A A89C
U57C U58A A62C
U58A U70C G86C A89C
U57A C79U A87C
U55G A74C C81G
C56U G88U
A54C G69C C75U U76G G85C
U55G G84U
U55A A60C G61U C79U
U57C A62G G65A
A54C U58G A74U U76C
C56G U58C G66C
U55A U71A C79A
A54C G84A
U55A G61C A62G G78U
U55G U71G
